Read counts are not given, so values of variants with three or more changes are uncertain.
B1: CPEB3 Ribozyme (parent)
chain: UAACAGGGGGCCACAGCAGAAGCGUUCACGUCGCAGCCCCUGUCAGAUUCUGGUGAAUCUGCGAAUUCUGCUGUAUAUCUC

Variants of: B1
Assay: self-cleavage, relative activity (ratio to wild type); higher = more cleavage; in vitro, sequencing
Procedure, shortened: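 Relative activity was defined as the cleaved/total read fraction for a variant divided by the same fraction for the unmutated ribozyme. CPEB3 self-cleaving ribozyme libraries were made by rounds of error-prone PCR, barcoded, and transcribed in vitro with T7 RNA polymerase for 5 hours at 37°C, and cleavage ran through transcription plus a 15 min DNase I step before EDTA. Illumina sequencing of template-switched reverse transcripts gave the reads, and DNA sequencing mapped the barcodes. Averages come from three batches, using variants with at least 5 reads.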

Question: With UAACCGGGGGCCACAGCAGGAGCGUUCAUGUCGCAGCCCCUGUCAGAUUCUGGUGAACCUGCGAAUUCUGCAGUGUAUCUC as the variant, how does the self-cleavage read?
Answer: 0.09

Question: For UAACCGGGGGCCACAGCAGAAGCGUUCACGUCGCCGCCCCAGUCAGAUUCUGGUGAAUCUGCGAAUCCUGCUGUAUAUCUC, which self-cleavage is on record?
Answer: 0.35

Question: For UAACCGGGGGCCACGGCAGAGGCGUUCACGUCGCAGCCCCUGUCAGAUUCUGGUGAAUCCGCGAAUUCUGCAGUAUAUCUC, which self-cleavage is on record?
Answer: 0.1

Question: With UAACCGGGGGCCACAGCAGGAGCGUUCGCGUCGCAGCCACUGUCAGAUUCUGGUGAAUCUGCGAAUUCUGCUGUUUAUCUC as the variant, how does the self-cleavage read?
Answer: 0.45

Question: With UAAUAGGGGGCCACAGCAGAAGCGUUCACGUCGCAGCCCCUGUCAGAUUCUGGUGAAUCUGCGAAUUCGGCUGUACAUCUC as the variant, how does the self-cleavage read?
Answer: 0.98

Question: For UAACCGGGGGCCACAGCAGAAGCGUUCGCGUCGCAGCCCCUGUCGGAUUCUGGCGAAUCUGCGUAUUCUGCUGUAUUUCUC, which self-cleavage is on record?
Answer: 0.09

Question: With UAACCGGGGGCCGCAGCAGUAGCGUUCACGUCGCAGCCCCUGUCAGAUUCUGGUGAAUCUGCGAAUUCUGCUGUAUAUCUC as the variant, how does the self-cleavage read?
Answer: 0.56

Question: Which self-cleavage does the source give for UAACCGGGGGCCACAGCAGAAGCGUUCACGUCGCGGCCCCUGUCAGAUUCUGGUGAAUCUGCGAAUUCUGCUGUAUGUCUC here?
Answer: 1.21

Question: With UAACCGGGGGCCACGGCAGGAGCGUUCACGUCGCAGCCCCUAUCGGACUCUGGUGAAUCUGCGAAUUCUGCUGCAUAUCUC as the variant, how does the self-cleavage read?
Answer: 0

Question: With UAAUAGGGGGCCACAGCAGAAGCGUUCACGUCGCAGCCCCGGUCAUAUUCUGGAGAGUCUGCGAAUUCUGCUGUAUAUCUC as the variant, how does the self-cleavage read?
Answer: 0.09

Question: With UAACCGGGGGCCGCAGCAGAAGCGUUCACGUCGCAGCCCCUGUCAGAUUCUGGUGAAUCUGCGAAUUCUGCUGUAUACCUC as the variant, how does the self-cleavage read?
Answer: 0.69

Question: Which self-cleavage does the source give for UAACCGGGGGCCACUGCAGUAGCGUUCCCGUCGCAGCCCCUGUCAGAUUCUGGUGUAUCUGCGAAUCCUGCUGUAUAUCUC here?
Answer: 0.16

Question: For UAACCGGGGGCCACAGCUGAAGCGUACACGUCGCAGCCCCUGUCAGAUUCUGGUGAAUCUGCGAAUUCUGCUGUGUAUCUC, which self-cleavage is on record?
Answer: 0.35

Question: For UAACCGGGGGCCACAGCAGAAGCGUUCGCGUCGCAGCCCCUGUCAGAUUCUGGUGAAUCUGCGAAUUCUGCUGUAUACCUC, which self-cleavage is on record?
Answer: 0.6

Question: With UAACCGGGGGCCACGGCAGAAGCGUUCACGUCGCAGCCCCUGUCAGAUUCCGGUGAGUCUGCGAAUUCUGCUGUGUAUCUC as the variant, how does the self-cleavage read?
Answer: 0.79

Question: Which self-cleavage does the source give for UAACCGGGGGCCACUGCAGAAGCGUUCACGUCGCAGCCCCUGUCAGAUUCCGGUGAAUCUGCGAACUCUACCGUAUAUCUC here?
Answer: 0.31

Question: For UAAUAGGGGGCCACAGCAGAAGCGUUCACGUCGCAGCCCCUGUCAGAUUCUGGUGAAUCUGCGAAUUCUGCUGUAUAACAC, which self-cleavage is on record?
Answer: 1.23

Question: With UAACCGGGGGCCACAGCAGAGGCGUUCACGUCGCAGCCCCUGUCAGAUUCUGGUGAAUUUGCGAAUUCUGCUGUAUAUCUC as the variant, how does the self-cleavage read?
Answer: 0.29

Question: Which self-cleavage does the source give for UAACCGGGGGCCCCAGCAGAAGCGUUCACGACGCAGCCCCUGUCAGAUUCUGGUGAAUCUGCGAAUUCUGCUGUAUAUCUC here?
Answer: 0.55

Question: With UAAUAGGGGGCCACAGCAGAAGCGUUCACGUCGCAGCCCCUGUCAGAUUCUGGUGAAUCUGCGAAUCCCGCUGUAUAUCUC as the variant, how does the self-cleavage read?
Answer: 0.24

Question: Which self-cleavage does the source give for UAACCGGGGGCCACAGCAGAUGCGUUCACGUCGCAGCCCCUGUCAGAUUCUGGUGUAUCUGCGAAUUCUGAUGUAUAUCUC here?
Answer: 0.26

Question: For UAACCGGGGGCCACAGCAGAAGCGUUCACGUCGCUGCCACCGUCAGAUCCUGGUGAAUCUGCGAAUUCUGCUGUAUAUCUC, which self-cleavage is on record?
Answer: 0.48

Question: With UAACCGGGGGCCACAGCAGAAGCGUUCACGUCGCGGCCCCUGUCAGAUUCUGGUGAGUCUGCGAGUUCUGCUGUAUAUCUC as the variant, how does the self-cleavage read?
Answer: 1.21

Question: Which self-cleavage does the source give for UAAUAGGGGGCCACAGCAGAAGCGUUCACGUCGCAGCCCCUGUCAGAUUCUGGUGAAUCCGCGAAUUCAGCUGUAUAACAC here?
Answer: 0.39

Question: Which self-cleavage does the source give for UAACCGGGGGCCACAGCGGCAGCGUUCACGUCGCAGCCCCUGUCAGAUUCUGGUGAAUCUGCGAGUUCUGCUGUAUAUCUC here?
Answer: 0.15

Question: With UAACCGGGGGCCACUGCAGAGGCGUCCACGUCGCAGCCCCUGUCAGAUUCCGGUGAAUCCGCGAAUUCUGCUGUAUAUCUC as the variant, how does the self-cleavage read?
Answer: 0.58

Question: Which self-cleavage does the source give for UAACCGGGGGCCACAGCAGAGGCGUUCACGUCGCAGCCCCUGUCGGAUUCUGGUGAAUCUGCGAGUUCUGCUGUAUAUCUC here?
Answer: 0.38

Question: Which self-cleavage does the source give for UAACCGGGGGCCACGGCAGUAGCGUUCACGAGGCAGCCCCUGUCAGAUUCUGGUGAAUCUGCGGAUUCUGCUGUAUAUCUC here?
Answer: 0.49

Question: With UAACCGGGGGCCACAGCAGAAGCGUUCACGUCGCGGCCCCUGUCAGAUUCUGGUGAACCUGCGAAUUCUGCUGUAUAUCUC as the variant, how does the self-cleavage read?
Answer: 1.13

Question: For UAACCGGGGGCCACGGCGGAAGCGUUCACGUCGCAGCCCCUGUCAGAUUCCGGUGAAUCUGCAAAUUCCGCUGUAUAUCCC, which self-cleavage is on record?
Answer: 0.56

Question: With UAACCGGGGGCCACAGCAGACGCGUUCACGUCGCAGACCCUGUCAGAUUCUGGUGAGUCUGCGGAUUCUGCUGUAUAUCUC as the variant, how does the self-cleavage read?
Answer: 0.23

Question: Which self-cleavage does the source give for UAACCGGGGGCCACAGCAGAUGCGUUCACGUCGCGGCCCCCGUCAGAUUCUGGUGAAUCUGCGGAUUCUGCUGUAUAUCUC here?
Answer: 0.5

Question: For UAACCGGGGGCCACAGCAGAAGCGUUCGCGUCGCAGCCCCUGUCAGAUUCUGGUGAUUCUGCGAAUUCUGCUGUAUAUCCC, which self-cleavage is on record?
Answer: 0.45

Question: Which self-cleavage does the source give for UAACCGGGGGCCACAGCAGAGGCGUUCACUUCGUAGCCCCCGUCAGAUUCUGGUGAAUCUGCGAAUUCUGCUGUAUAUCUC here?
Answer: 0.21

From the RNAGym collection of RNA variant scans (doi:10.1093/nar/gkz1192)
